# Experimental data from the supplement of paper PMC8728848.
# This is one part of the list.
# B1: BC2L-D C-terminal domain (Burkholderia cenocepacia), Q39MQ9_BURS3 (protein)
# chain: LVIVDAVTLLSAYPEASRDPAAPTVIDGRHLYVVSPGDAAQLGHNDSRLFTGLSPGDQLHLRETALALRAEVSVLFIRFALKDAGIVAPIELEVRDAATAVPDADDLLHPSCRPLKDHYWRSDVLAAGATTCTADFAVCDRDGTVSGYFRWETSIEIAGSQPDTKQPGFKPSSDRNGNFSLPPNTAFKAIFYANAADRQDLKLFIDDAPEPAATFVGNSEDGVRLFTLNSKGGKIRIEASANGRQSATDARLAPLSAGDTVWLGWLGAEDGADADYNDGIVILQWPIT
# Key:
# Experiment in all cases: glycan array binding signal (z-score within array); higher = stronger binding
# Details in all cases: glycan notation: IUPAC condensed, linker removed
# [1] = biological target: Neu5Ac(a2-6)Gal(b1-4)GlcNAc(b1-2)Man(a1-3)[GlcNAc(b1-2)Man(b1-4)GlcNAc(b1-2)Man(a1-6)]Man(b1-4)GlcNAc(b1-4)GlcNAc
# Procedure, shortened: (§1)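 Arrays were curated from the Consortium for Functional Glycomics database, 3228 in total, and kept only where the protein sequence was available. Binding is expressed as a within-array Z-score. This score was averaged across arrays of the same protein sequence at different concentrations or buffers and across linkers, and negative values can be read as non-binding.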
# [2] = biological target: Neu5Ac(a2-6)Gal(b1-4)GlcNAc(b1-2)Man(a1-3)[Man(a1-6)]Man(b1-4)GlcNAc(b1-4)GlcNAc
# Procedure, shortened: as §1
# [3] = biological target: Neu5Ac(a2-6)Gal(b1-4)GlcNAc(b1-2)Man(a1-3)[Neu5Ac(a2-6)Gal(b1-4)GlcNAc(b1-2)Man(a1-6)]Man(b1-4)GlcNAc(b1-4)GlcNAc
# Procedure, shortened: as §1
# [4] = biological target: Neu5Ac(a2-6)Gal(b1-4)GlcNAc(b1-2)Man(a1-6)Man(b1-4)GlcNAc(b1-4)GlcNAc
# Procedure, shortened: as §1
# [5] = biological target: Neu5Ac(a2-6)Gal(b1-4)GlcNAc(b1-2)Man(a1-6)[Gal(b1-4)GlcNAc(b1-2)Man(a1-3)]Man(b1-4)GlcNAc(b1-4)GlcNAc
# Procedure, shortened: as §1
# [6] = biological target: Neu5Ac(a2-6)Gal(b1-4)GlcNAc(b1-2)Man(a1-6)[GlcNAc(b1-2)Man(a1-3)]Man(b1-4)GlcNAc(b1-4)GlcNAc
# Procedure, shortened: as §1
# [7] = biological target: Neu5Ac(a2-6)Gal(b1-4)GlcNAc(b1-2)Man(a1-6)[Man(a1-3)]Man(b1-4)GlcNAc(b1-4)GlcNAc
# Procedure, shortened: as §1
# [8] = biological target: Neu5Ac(a2-6)Gal(b1-4)GlcNAc(b1-3)Gal(b1-3)GlcNAc
# Procedure, shortened: as §1
# [9] = biological target: Neu5Ac(a2-6)Gal(b1-4)GlcNAc(b1-3)Gal(b1-4)GlcNAc
# Procedure, shortened: as §1
# [10] = biological target: Neu5Ac(a2-6)Gal(b1-4)GlcNAc(b1-3)Gal(b1-4)GlcNAc(b1-3)Gal(b1-4)GlcNAc
# Procedure, shortened: as §1
# [11] = biological target: Neu5Ac(a2-6)Gal(b1-4)GlcNAc(b1-3)Gal(b1-4)[Fuc(a1-3)]GlcNAc(b1-3)Gal(b1-4)[Fuc(a1-3)]GlcNAc
# Procedure, shortened: as §1
# [12] = biological target: Neu5Ac(a2-6)Gal(b1-4)GlcNAc(b1-3)GalNAc
# Procedure, shortened: as §1
# [13] = biological target: Neu5Ac(a2-6)Gal(b1-4)GlcNAc6S
# Procedure, shortened: as §1
# Neu5Ac(a2-6)GalNAc = biological target: Neu5Ac(a2-6)GalNAc
# Procedure, shortened: as §1
# [14] = biological target: Neu5Ac(a2-6)GalNAc(b1-4)GlcNAc
# Procedure, shortened: as §1
# [15] = biological target: Neu5Ac(a2-6)GlcNAc(b1-4)GlcNAc
# Procedure, shortened: as §1
# [16] = biological target: Neu5Ac(a2-6)GlcNAc(b1-4)GlcNAc(b1-4)GlcNAc
# Procedure, shortened: as §1
# Neu5Ac(a2-8)Neu5Ac = biological target: Neu5Ac(a2-8)Neu5Ac
# Procedure, shortened: as §1
# [17] = biological target: Neu5Ac(a2-8)Neu5Ac(a2-3)Gal(b1-3)GalNAc(b1-4)[Neu5Ac(a2-8)Neu5Ac(a2-3)]Gal(b1-4)Glc
# Procedure, shortened: as §1
# [18] = biological target: Neu5Ac(a2-8)Neu5Ac(a2-3)Gal(b1-4)Glc
# Procedure, shortened: as §1
# [19] = biological target: Neu5Ac(a2-8)Neu5Ac(a2-3)[Gal(b1-3)GalNAc(b1-4)]Gal(b1-4)Glc
# Procedure, shortened: as §1
# [20] = biological target: Neu5Ac(a2-8)Neu5Ac(a2-3)[GalNAc(b1-4)]Gal(b1-4)Glc
# Procedure, shortened: as §1
# [21] = biological target: Neu5Ac(a2-8)Neu5Ac(a2-8)Neu5Ac
# Procedure, shortened: as §1
# [22] = biological target: Neu5Ac(a2-8)Neu5Ac(a2-8)Neu5Ac(a2-3)Gal(b1-4)Glc
# Procedure, shortened: as §1
# [23] = biological target: Neu5Ac(a2-8)Neu5Ac(a2-8)Neu5Ac(a2-3)[GalNAc(b1-4)]Gal(b1-4)Glc
# Procedure, shortened: as §1
# [24] = biological target: Neu5Ac(a2-8)Neu5Ac(a2-8)Neu5Ac(a2-8)Neu5Ac(a2-3)[GalNAc(b1-4)]Gal(b1-4)Glc
# Procedure, shortened: as §1
# [25] = biological target: Neu5Ac(b2-6)Gal(b1-4)GlcNAc
# Procedure, shortened: as §1
# Neu5Ac(b2-6)GalNAc = biological target: Neu5Ac(b2-6)GalNAc
# Procedure, shortened: as §1
# [26] = biological target: Neu5Ac9Ac(a2-3)Gal(b1-3)GlcNAc
# Procedure, shortened: as §1
# [27] = biological target: Neu5Ac9Ac(a2-3)Gal(b1-4)GlcNAc
# Procedure, shortened: as §1
# [28] = biological target: Neu5Ac9Ac(a2-6)Gal(b1-4)GlcNAc
# Procedure, shortened: as §1
# [29] = biological target: Neu5Gc(a2-3)Gal(b1-3)GlcNAc
# Procedure, shortened: as §1
# [30] = biological target: Neu5Gc(a2-3)Gal(b1-3)[Fuc(a1-4)]GlcNAc
# Procedure, shortened: as §1
# Neu5Gc(a2-3)Gal(b1-4)Glc = biological target: Neu5Gc(a2-3)Gal(b1-4)Glc
# Procedure, shortened: as §1
# [31] = biological target: Neu5Gc(a2-3)Gal(b1-4)GlcNAc
# Procedure, shortened: as §1
# [32] = biological target: Neu5Gc(a2-3)Gal(b1-4)[Fuc(a1-3)]GlcNAc
# Procedure, shortened: as §1
# [33] = biological target: Neu5Gc(a2-6)Gal(b1-4)GlcNAc
# Procedure, shortened: as §1
# Neu5Gc(a2-6)GalNAc = biological target: Neu5Gc(a2-6)GalNAc
# Procedure, shortened: as §1
# [34] = biological target: Neu5Gc(b2-6)Gal(b1-4)GlcNAc
# Procedure, shortened: as §1
binder,measurement,setting,value
B1,glycan array binding signal (z-score),[1],-0.25
same,glycan array binding signal (z-score),[2],0.456
same,glycan array binding signal (z-score),[3],-0.24
same,glycan array binding signal (z-score),[4],-0.241
same,glycan array binding signal (z-score),[5],-0.257
same,glycan array binding signal (z-score),[6],-0.235
same,glycan array binding signal (z-score),[7],1.83
same,glycan array binding signal (z-score),[8],-0.238
same,glycan array binding signal (z-score),[9],-0.233
same,glycan array binding signal (z-score),[10],-0.246
same,glycan array binding signal (z-score),[11],0.003
same,glycan array binding signal (z-score),[12],-0.216
same,glycan array binding signal (z-score),[13],-0.239
same,glycan array binding signal (z-score),Neu5Ac(a2-6)GalNAc,-0.242
same,glycan array binding signal (z-score),[14],-0.243
same,glycan array binding signal (z-score),[15],-0.247
same,glycan array binding signal (z-score),[16],-0.242
same,glycan array binding signal (z-score),Neu5Ac(a2-8)Neu5Ac,-0.242
same,glycan array binding signal (z-score),[17],-0.16
same,glycan array binding signal (z-score),[18],-0.248
same,glycan array binding signal (z-score),[19],-0.162
same,glycan array binding signal (z-score),[20],-0.235
same,glycan array binding signal (z-score),[21],-0.244
same,glycan array binding signal (z-score),[22],-0.247
same,glycan array binding signal (z-score),[23],-0.235
same,glycan array binding signal (z-score),[24],-0.222
same,glycan array binding signal (z-score),[25],-0.248
same,glycan array binding signal (z-score),Neu5Ac(b2-6)GalNAc,-0.247
same,glycan array binding signal (z-score),[26],-0.239
same,glycan array binding signal (z-score),[27],-0.25
same,glycan array binding signal (z-score),[28],-0.243
same,glycan array binding signal (z-score),[29],-0.243
same,glycan array binding signal (z-score),[30],-0.038
same,glycan array binding signal (z-score),Neu5Gc(a2-3)Gal(b1-4)Glc,-0.233
same,glycan array binding signal (z-score),[31],-0.242
same,glycan array binding signal (z-score),[32],-0.236
same,glycan array binding signal (z-score),[33],-0.245
same,glycan array binding signal (z-score),Neu5Gc(a2-6)GalNAc,-0.242
same,glycan array binding signal (z-score),[34],-0.233
